{"source": "paper PMC12136788", "binders": {"B1": {"name": "chr17:45747064:45747065:+_ENSG00000108424_ENST00000290158|hu_hu|hu_hu_hu_mus_True|28_108 (ssRNA)", "RNA": "GGGAGUUCUACAGUCCGACGAUCGCCUACAGUCCAUGCUGUUGUGUCUCGAACAACUACACUGGGGUCUUUCAUUAGUUCUAUUAGGGUGGGCAUAGCCUGUAUGACUAGUGGUUUCAGUUGAUUAGGCUCUGGUCCUUCCAACAACAGAGGAUUGAGCAUCA"}, "B2": {"name": "chr16:94647761:94647762:+_ENSMUSG00000040785_ENSMUST00000117648|mus_mus|FALSE|FALSE (ssRNA)", "RNA": "GGGAGUUCUACAGUCCGACGAUCGAUAAUCUUAGAAAUGAUUCCCUCACAAUCGGGAGUGAGACAGAUUCCUUGUAGAAAAUCCUUGUCAAUUUUAUCAUUAAAAGUUGUUGUUUUUAACUUUUUCCAGCAGUUCAUAUGAAACAACAGAGGAUUGAGCAUCA"}, "B3": {"name": "chr7:30640729:30640730:+_ENSG00000106105_ENST00000389266|hu_hu|motif|central (ssRNA)", "RNA": "GGGAGUUCUACAGUCCGACGAUCCUGAAUAAUAUUGUUCUUCAAAGCACAGCCAACUGGCCCAAAGUCAUACAGACCACGGACACCUCCAUAAAUAGCAAAAGCUUGAUCAUAGAAAAACCUCCUCUUCAGGGUAUCUUCCAUCAACAGAGGAUUGAGCAUCA"}, "B4": {"name": "113631578_113639612_387_3pUTR_ENSG00000086827_ENST00000200135|human|control|control (ssRNA)", "RNA": "GGGAGUUCUACAGUCCGACGAUCCUUUCCAACUGCUGCUUUAAGUCUGUAAAUUCACCGGUUGAUACGUGAAGAUCCCGGCGGACCUCACUCUCUAUCCUGGAUUUCAGCAGGUCAAUGUCUUCAGAUAGCUUAUCCACCUGGCAACAGAGGAUUGAGCAUCA"}, "B5": {"name": "chr4:101271765:101271766:+_ENSMUSG00000028528_ENSMUST00000094953|mus_mus|FALSE|FALSE (ssRNA)", "RNA": "GGGAGUUCUACAGUCCGACGAUCAGACUUGGGUGACAAGUUGUAUACUGUGUAGUGGUCAAGAUGUCUGGAAUCCAAAAAGCUACGGAUGUCAUCAACCUGAUUCCUGAAUCCUAUGUCAACACUAUCCACAGGAAAGGACAUCAACAGAGGAUUGAGCAUCA"}, "B6": {"name": "chr22:19452774:19452775:-_ENSG00000070010_ENST00000399523|hu_hu|hu_hu_hu_mus_False|38_68 (ssRNA)", "RNA": "GGGAGUUCUACAGUCCGACGAUCCUUCUCAUUGUAGUUGAUAGCAAUCACAUCUCCAGUCGUCAGACAGGCAAAGUUUCUCAAUGCAUUUUCUAAUACGGCUUUGGGGUUGGUAAUAUCCAGGAAGUCUGGGCUCUGAGGCUGCAACAGAGGAUUGAGCAUCA"}, "B7": {"name": "105531169_105531289_1356_3pUTR_ENSMUSG00000068798_ENSMUST00000090678|mouse|control|control (ssRNA)", "RNA": "GGGAGUUCUACAGUCCGACGAUCAUAAACAAUAACAAAAAGACACAAACCAAAUGAAAAUGUACUAAAAUUUAAUCAUCCAUAAAAGCUGUAAUUUAAUCUGACAGUAAAACACAAGAAGCAAUAUUAGAGUUGGUUUAGUAUCAACAGAGGAUUGAGCAUCA"}, "B8": {"name": "chr17:61910164:61910165:-_ENSG00000108604_ENST00000448276|hu_mus|FALSE|FALSE (ssRNA)", "RNA": "GGGAGUUCUACAGUCCGACGAUCCAGUAAUAAGGCUUUGGGAACCAAGCAGUGAGGGAUCUAAAACUACAUUUAUGAAACUAAAGCUGGGGAGUGGAGGGUGACAGGAAACACACCUCACUCCAUCCUACAUGUCUGCAGCCCCAACAGAGGAUUGAGCAUCA"}, "B9": {"name": "chr1:235506033:235506034:+_ENSG00000152904_ENST00000391855|hu_hu|motif|central (ssRNA)", "RNA": "GGGAGUUCUACAGUCCGACGAUCUUAACAUUAUUCAUUUUCUUCUUUGAACAUCUUACUUAAGUGUUUUACUAAGGCGGCGGGCUCAGGGUUCCCACCACGUGCAUCAAUCUGUUUAUAGGCUUUAGCUUCAAGCUCUUUAAGCAACAGAGGAUUGAGCAUCA"}, "B10": {"name": "chr14:65392728:65392729:+_ENSG00000258289_ENST00000359118|hu_hu|FALSE|FALSE (ssRNA)", "RNA": "GGGAGUUCUACAGUCCGACGAUCGUAUCUUCGGCUUUGCCGCAUAACAGACACAGCAUGGUAUACUCGAUCAUAGGUAACUAUUUCUUCUCCAUCUUCUUCUUUCAAGGAUUUGUUUGUGAUCAGCAUAAAAUCCCGCUUACUCAACAGAGGAUUGAGCAUCA"}, "B11": {"name": "chr13:110848956:110848957:-_ENSMUSG00000021700_ENSMUST00000167824|mus_mus|motif|central (ssRNA)", "RNA": "GGGAGUUCUACAGUCCGACGAUCAGACAAACCAACACUAGAGUUCUUGGGAGUGUUUUCCGAAGCAGUUAGGGUUGUUCGGAAAACAAUGGAUGGGCAGGGGUACCCAGAUGACCACAGGGGAGGGCAAUGACACACUUAAAACAACAGAGGAUUGAGCAUCA"}, "B12": {"name": "14083628_14083748_6356_3pUTR_ENSG00000147862_ENST00000380959|human|control|control (ssRNA)", "RNA": "GGGAGUUCUACAGUCCGACGAUCGUAGAGUUGUUUCAUUAAAAAUGAAUACUGUACACUGAAUAUGGGAUAACUUUCUGCAGCCUUCAUCAUUUCACACAGUACAUAGAAUUUGAAUCUAGGUAAAGAACAUGUCCUGCUGUCCAACAGAGGAUUGAGCAUCA"}, "B13": {"name": "chr7:27831639:27831640:+_ENSG00000106052_ENST00000265393|hu_mus|FALSE|FALSE (ssRNA)", "RNA": "GGGAGUUCUACAGUCCGACGAUCAAGUUCUUGCCGUGUUGCCUGGACUUGUUCCUCCGCUUUGCGAAGUUGCUCCUUUAAAAAUAAUGUAUCUUCUUUAUUUGAGGUUGUAAGCAGGAGAGCUCUGUACAAAUUUUCCUUGUCCAACAGAGGAUUGAGCAUCA"}, "B14": {"name": "chr11:118025658:118025659:-_ENSMUSG00000017132_ENSMUST00000017276|mus_hu|motif|central (ssRNA)", "RNA": "GGGAGUUCUACAGUCCGACGAUCUUGUAUUUUGACAAAACUUCUUUUAAACAAAUACAAAAUAAUCUAAAAGGAGAAAAACGGUACAUAGAUUAUUUACACCUCUGAUAAAUAGACUAAUACUGACCCAGGUGCCUCUCUGUCCAACAGAGGAUUGAGCAUCA"}, "B15": {"name": "chr4:175223256:175223257:+_ENSG00000164118_ENST00000503780|hu_hu|motif|central (ssRNA)", "RNA": "GGGAGUUCUACAGUCCGACGAUCAAAUUGAUCACGAAGAAGCUUAUAGACAGCAUCUAUAAAGCGCAAGUCAUUUUUUGCGGUGAGCUCUACAUUGGAUUCCAUUAUAAGUUCUGUUACAUAAGGUGAGUAUGAGGUAAAAGACAACAGAGGAUUGAGCAUCA"}, "B16": {"name": "chrX:98862621:98862622:+_ENSMUSG00000034160_ENSMUST00000044475|mus_hu|mus_mus_mus_hu_False|38_58 (ssRNA)", "RNA": "GGGAGUUCUACAGUCCGACGAUCCUGCAUCUCCUUUAGAGUGUUUCCCAUAUUAGAGUAGGCAUCAGCAAAGGUAGGACUAAUUCGAAUAGCCUCCUUAUAGUGCAUCAGAGCUUCCUGCAGUUUUCCCUGCUGCUGCAGUACCAACAGAGGAUUGAGCAUCA"}, "B17": {"name": "chr1:89687925:89687926:+_ENSMUSG00000026289_ENSMUST00000027512|mus_mus|FALSE|FALSE (ssRNA)", "RNA": "GGGAGUUCUACAGUCCGACGAUCUUUUCUGGGAGGACACAUCAUUCUCCAAGAUGGGCCGUGGGGUCCCACGGUGCUCCUAAGGGUGCAGCAUCAAGGCUGUGCCCACAGCACAGCUCUGCUUCCUUUGUCCACACUGACAACCAACAGAGGAUUGAGCAUCA"}, "B18": {"name": "chrX:50352303:50352304:+_ENSMUSG00000025630_ENSMUST00000026723|mus_hu|motif|central (ssRNA)", "RNA": "GGGAGUUCUACAGUCCGACGAUCCAGCAUAAUGAUUAGGUAUGCAAAAUAAAUCAAGGUCAUAACCUGGUUCAUCAUCACGGAUCACGACGCCAGGGCUGCGGGUCGCCAUAACGGAGCCGGCCGGCGCGCGGGCUGACUGCUCAACAGAGGAUUGAGCAUCA"}, "B19": {"name": "chr2:4544944:4544945:-_ENSMUSG00000039449_ENSMUST00000035721|mus_mus|FALSE|FALSE (ssRNA)", "RNA": "GGGAGUUCUACAGUCCGACGAUCCCUUGAUAUGCUGGUGUUCUGAACUUAGGCUGGUAUAACAGCCAUCUUUCGACCUUCUAUCUCCUAUCAAUUCAUCUGUCCAGAAAGAUGACAACCAUACUCUGCUUAGAAAGAAAAGCACAACAGAGGAUUGAGCAUCA"}, "B20": {"name": "chr4:144465060:144465061:+_ENSG00000153147_ENST00000283131|hu_mus|FALSE|FALSE (ssRNA)", "RNA": "GGGAGUUCUACAGUCCGACGAUCAUAGUCUUCUCCUUCAAAGUUAUAAACACUGGACUCUGUGUCCAUCGUAAAGUUUCUAAGUGAACUUUCACCCAUCUUGGAGAGCUUUUCGUUCAUUUCUGCAGUCUUCUUUGCACCUCUCAACAGAGGAUUGAGCAUCA"}, "B21": {"name": "chr18:54424204:54424205:+_ENSG00000091157_ENST00000357574|hu_hu|FALSE|FALSE (ssRNA)", "RNA": "GGGAGUUCUACAGUCCGACGAUCCCAGGCGUGAAGGCAGGACAUAAACAGCUUUGCAGUGUCCAUAGUUAAAUUAUAUUCUAAUAGGGUCAAUGGCUUUGAUUUGCUGGACCGAUAUUCAGGAUCACUUUCUUCCCUUCUCUGCAACAGAGGAUUGAGCAUCA"}, "B22": {"name": "chr4:76572280:76572281:-_ENSG00000138757_ENST00000395719|hu_mus|FALSE|FALSE (ssRNA)", "RNA": "GGGAGUUCUACAGUCCGACGAUCUUUCAGUUCAUUUUCAUCAAUAUCAUGAGGCAAGUUACCAACGAAAAGCUGAUGACUGUCCGGAUAGCGAAUUAUUCUCCGGUUGUCAGAGUCAUUCUGUUCCAUAUCUCCUCUGCCUGGCAACAGAGGAUUGAGCAUCA"}}, "note": "Some of the results follow."}
{"biological_target": "T1, UNK ZnF1-3 (human, UniProt Q9C0B0 31-174)", "T1 sequence": "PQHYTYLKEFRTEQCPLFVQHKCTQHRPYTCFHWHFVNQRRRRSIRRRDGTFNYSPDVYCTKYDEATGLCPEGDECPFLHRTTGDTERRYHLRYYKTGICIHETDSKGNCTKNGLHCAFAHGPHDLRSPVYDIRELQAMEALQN", "assay": "nsRBNS (natural sequence RNA bind-n-seq); RBNS binding buffer (assumed for nsRBNS): 25 mM Tris pH 7.5, 150 mM KCl, 3 mM MgCl2, 0.01% Triton X-100, 500 ug/ml BSA, 20 U/ml SUPERase-In, 4 C; UNK is unkempt and MSI1 is Musashi-1; names of the RNAs are library labels; protein concentration not given here; high values mean tight binding", "units": {"binding signal": "enrichment R"}}
{"binder": "B1", "binding signal": 0.667}
{"binder": "B2", "binding signal": 0.548}
{"binder": "B3", "binding signal": 1.05}
{"binder": "B4", "binding signal": 0.543}
{"binder": "B5", "binding signal": 1.11}
{"binder": "B6", "binding signal": 1.03}
{"binder": "B7", "binding signal": 1.54}
{"binder": "B8", "binding signal": 1.24}
{"binder": "B9", "binding signal": 0.627}
{"binder": "B10", "binding signal": 0.662}
{"binder": "B11", "binding signal": 1.96}
{"binder": "B12", "binding signal": 0.719}
{"binder": "B13", "binding signal": 0.672}
{"binder": "B14", "binding signal": 1.49}
{"binder": "B15", "binding signal": 1.28}
{"binder": "B16", "binding signal": 1.02}
{"binder": "B17", "binding signal": 1.07}
{"binder": "B18", "binding signal": 0.935}
{"binder": "B19", "binding signal": 1.01}
{"binder": "B20", "binding signal": 0.378}
{"binder": "B21", "binding signal": 1.24}
{"binder": "B22", "binding signal": 0.814}
